Reference: the RNAGym collection of RNA variant scans (doi:10.7554/elife.90254)
Read counts are not given, so values of variants with three or more changes are uncertain.

B1: LINE1-mini (parent)
chain: GGCAGAGCUCAACACAGCGUGGCAAAGUGGCUGUGGCUAGACUGCC

Variants of: B1
Assay: self-cleavage, relative activity (ratio to wild type); higher = more cleavage; in vitro, sequencing; the parent is a self-cleaving ribozyme

Row | Variant | self-cleavage
1 | CGUAGAACUCAACACGGCGUGGCAAAGUGGCUGUGGCUAGACUGCC [G1C C3U G7A A16G] | 0.12
2 | GGCAGAGCUCCACACAGCGACGCAAAGUGGCUGUAGCUAGACAGCC [A11C U20A G21C G35A U43A] | 0
3 | GGCAGAGCUCAACACAGCCUGGCAUAGUAGCUGUGGCUAUACUACC [G19C A25U G29A G40U G44A] | 0.02
4 | GGCAGAGCUCAACACAGGGUGGCAAAGUGGCUGUGGCUUGACUCCC [C18G A39U G44C] | 0.04
5 | GUCGGAGCUCAACACAGCGUUGCAAAAUGGCUGUGGCUAGACUGCC [G2U A4G G21U G27A] | 0.1
6 | GGCAGAGUUCAACACAGCGUGGCAAAGUAGCUAUGGCUAGACUGCC [C8U G29A G33A] | 0.07
7 | GGCAAAGCUCAACACUACGUGGAAAAGUGGCUGUGGCUAGACUGCC [G5A A16U G17A C23A] | 0.06
8 | GGCAUCACUCAACACAGCGUGGCAAAGUGGCUGUGGCUAGACUGCC [G5U A6C G7A] | 0.1
9 | GGCAAGGCUCAACACAGCGUGGCAAAGUGGUUGUGGUUAGACUGCC [G5A A6G C31U C37U] | 0.19
10 | CGCAGAUCUCAACACAGCGUGGCAAAGAGGCUGUAGCUAGACUGCC [G1C G7U U28A G35A] | 0.01
11 | GGAAGAGCUCAACACAGCGUGGCAAAGUGGCUGUGGCAAGACUUCC [C3A U38A G44U] | 1.48
12 | GGCAGAGUUCCACACAGCGUGGCAAAGUGCCUGUGGCUAGACUGCC [C8U A11C G30C] | 0
13 | GGUGGUGCGCAACACAGCGUGGCAAAGUGGCUGUGGCUAGACUGAC [C3U A4G A6U U9G C45A] | 0.17
14 | GGCAGAGCUCAACACAGCGUGGCGAAGUGGCUGUGCCUAGACUCCC [A24G G36C G44C] | 0.1
15 | GGCAUAGCUCAAUACAGCGUGGCAAAGUCGCUGUGGCUAGACUGCC [G5U C13U G29C] | 0.02
16 | GGCAUAGCUCAACACAGCGUGGCAACGUGGCUGUCGCACGCCUGCC [G5U A26C G35C U38A A39C A41C] | 0.03
17 | GGCAUAGCUCAACACAGCGUGGCAAAGUGGCUGUGGCAAUACUGCC [G5U U38A G40U] | 0.08
18 | GGCAGCGCUUAACACAGCGUGGAAAAGUGGCUGUGGCUAUACUGAC [A6C C10U C23A G40U C45A] | 0.01
19 | GGCAGAUCUCAACACAGCAUGGCAAAGUGGUUGUGGCUAGACUGCC [G7U G19A C31U] | 0.04

Row | Variant | self-cleavage
20 | GACAGAGCUCAACAUAGCGUGGCAAAGUGGCUGUGGCUAGACUGUC [G2A C15U C45U] | 0.64
21 | GGCAGAGAUCAACACAGCGUAGCAAAGUGUCCGUGGCUGGACUGCA [C8A G21A G30U U32C A39G C46A] | 0.52
22 | GGCAGAGAUCAACACAGGGUGGCAAAGUGGCUGUGGCGAGACAGCC [C8A C18G U38G U43A] | 0.07
23 | GGCAGAGCUCAACCCAGCGUCGCAAAGUGGCUGUGGCUGGACUGCC [A14C G21C A39G] | 0
24 | GGCAGAGCUCAACACAGCGUGGCAAAGUGGCUUUGGCUAGAUUCCC [G33U C42U G44C] | 0.03
25 | GGCAGAGCUCAACACAGCGUGGCAAAGUGGUUGUGGCUAGUCUGCU [C31U A41U C46U] | 0.08
26 | GGCAGAGCUCAACACAGAGUUCCAAAGUACCUGUGGCUAGACUGCC [C18A G21U G22C G29A G30C] | 0.15
27 | GGCACAACUCAACACAGCGCGGCAAAGUGGCUGUGUCAAGCCUGCC [G5C G7A U20C G36U U38A A41C] | 0.38
28 | GGGAGAACUCAACAUAGCGUGGCAAAGUGGCUGUGGCUAGACUGCC [C3G G7A C15U] | 0.22
29 | GGCAAAGGUCAACACAGCGUAGCAAAGUGGCUGUGGCUAGACUGCC [G5A C8G G21A] | 0.85
30 | GCUAGAGCUCAACACAGCGUCGCAAAGUGGCUGUGGCUAGACUGCC [G2C C3U G21C] | 0.18
31 | GGCAGAGGUCAACACUGCGUUGCAAAGUGGCUGUGGCUAGACUGCU [C8G A16U G21U C46U] | 0.01
32 | GGCAGAGCUCAACACAGCGUGGCAAAGUAGCUGUUGCGAGACUGCC [G29A G35U U38G] | 0.02
33 | GGCAGAGCUCAACUCAGCGUGGCAAAUUGGCUGUUGUUAUACUGCC [A14U G27U G35U C37U G40U] | 0.06
34 | GGCAGAGACCACCACAGCGUGGCAAAGUGGCUGUGGCUAGACUCCC [C8A U9C A12C G44C] | 0.06
35 | GGCAGAGCUCAACACAGCGUGGCAAAAUGUCUGUGGCUACACUGCC [G27A G30U G40C] | 0.27
36 | GGCCGAGCUCAACACAGCCUGGCAAAGUGGCUGUGCUUAGACUGCC [A4C G19C G36C C37U] | 0.03
37 | GGCAGAGAUCAAGACAGCGUGGCAAAGUGGCUGUAGCUAGACUGCC [C8A C13G G35A] | 0.68
38 | GGCAGAGCUCAACACAGCGUGGCAGAGUGGCGGAGGCUAGAUUGCC [A25G U32G U34A C42U] | 0.03

Row | Variant | self-cleavage
39 | GGCAGAGCUCAACACAGACUGGCAAAGUAUCUGUGGCUAGACUGCC [C18A G19C G29A G30U] | 0.56
40 | GGCAGAGCUUAACACAGCGUGGAAAAGUGGAUGUGGCUAGACUGCC [C10U C23A C31A] | 0.04
41 | GACAGAGCUCGAAACAGCGUGCCAAAGUGGCUGUGGCUAGACUGCC [G2A A11G C13A G22C] | 0.02
42 | GGCAGAUCUCAAUACAGCGUGGUAAUGUGGCUGUGGCUAGACUGCC [G7U C13U C23U A26U] | 0.09
43 | GGCAGAGCACAACAGAGCGUGGCAACGUAUCUGUGGCUAGACUGUC [U9A C15G A26C G29A G30U C45U] | 0.05
44 | GGCCGAGCUGAACGCAGCGGGGCAAAGUGGCUGUGGCUAGACCGCC [A4C C10G A14G U20G U43C] | 0
45 | GGCAGUAAUCAACACAGGGUGGCAAAGUAGCUGUGGCUAGCCUGCC [A6U G7A C8A C18G G29A A41C] | 1.09
46 | GGCAGAGCUCAACACAGCGUGGCAUAGUGUCUGUGGCUAGAAUGAC [A25U G30U C42A C45A] | 0.03
47 | GGCAGAGCUCAAUACAGCGUGGCACAGCGGCUGUGGCUAGACUGCC [C13U A25C U28C] | 0.04
48 | GGCUGUGCUCGCCAUAGCGCGGCAAAGUGGCUGUCGCUCGACUGCC [A4U A6U A11G A12C C15U U20C G35C A39C] | 0.01
49 | GGCAGAGCUCAACACAGCGGGGCAAAGUGGCUAUGGCUAGACUGAC [U20G G33A C45A] | 0.01
50 | GCUAGAGCUCAACACAGCGUGGCACAGUGGCUGUGGCAAUACUGCC [G2C C3U A25C U38A G40U] | 0.1
51 | GGCAGAGCUCAACAAAGUGUGGCUAAGUGGCUGUGGCUAGACUGCC [C15A C18U A24U] | 0.06
52 | UGCAGAGCUAAACACAGCGUGGCAAAGUGGCUUUGGCUGUACUGCC [G1U C10A G33U A39G G40U] | 0
53 | UGCAGAGCUCAACACAGCGUGGCAAAGAGGCUGAGGCUAGACUGCC [G1U U28A U34A] | 0.07
54 | GUCAGAGCUCAACACAGCGUGGACAAGUGGCCGUGGCUAGACUGCC [G2U C23A A24C U32C] | 0.08
55 | GGCAGAGCUCUACACAGCAUGGCAAAGUGGCUGUGGCUGGACUGCC [A11U G19A A39G] | 0.09
56 | GGCGCAGCUCGACACAGCCUUGCAAAGUGGCUGUGGCUGGACUGCC [A4G G5C A11G G19C G21U A39G] | 0.01
